Test results reported in PubChem BioAssay (NCATS).
The shares of active, inactive and inconclusive entries below differ from those in the screen. Activity calls are given as the source filed them. Calls come from the whole dose curve; as a rule, active = well fitted curve in either direction with a large enough effect (not every such curve was filed as active); inconclusive = small, poorly fitted or top-dose-only effect, or another doubt; inactive = flat fitted curve, though single readings scatter.

Assay: NFAT Signaling Pathway (AID 444);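 note: carbachol stimulus at about its EC50 of 1 µM final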
Details: Jurkat NFAT-bla M1, carbachol, beta-lactamase ratio, 5 h; at 17.2 µM (top of the series) unless noted
Summary of the method: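 Jurkat cells with NFAT-driven β-lactamase reporter and co-expressed M1 receptor, stimulated with carbachol (final 1 uM, ~EC50), compound titration, 5 h at 37 °C. CCF4 loaded 1 h at RT; 460/530 nm ratio gave %activity and AC50.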
% is set by controls: 0 for no effect and ±100 for the full control effect.

Compound	activity change, negative = inhibition
COCC(=O)N1CCC2(CCCN(Cc3ccc(C#N)cc3)C2)CC1	inconclusive: -65.6% [inhibitor] [at 7.69 µM]
O=C(c1cccs1)N1CCC(N2CCN(c3ccccc3)CC2)CC1	inconclusive: -47% [inhibitor]
O=C(O)CCCC(=O)N1CCN(C(c2ccccc2)c2ccccc2)CC1	inactive: 7.29%
O=C(CSc1nc2ccccc2c(=O)n1CC1CCCCC1)N1CCOCC1	inconclusive: 58.5% [activator]
NC(=S)SCCC(=O)O	inactive: 14.5% [at 7.69 µM]
COc1ccc(/C(O)=C2/C(=O)C(=O)N(CCCN(C)C)C2c2ccccc2)cc1OC (stereo not drawn)	inactive: -0.461%
CCC(=O)Nc1nc2ccccc2n1Cc1ccccc1C	inconclusive: -48.3% [inhibitor]
Cc1ccc(S(=O)(=O)Nc2ccccc2C=O)cc1	inconclusive: -45.6% [inhibitor] [at 7.69 µM]
C/C(=N/n1cnnc1)c1cccnc1	inactive: -0.807%
CCCCCNC(=O)C(C#N)c1nc2ccccc2nc1N1CC(C)OC(C)C1 (stereo not drawn)	inconclusive: -33.6% [inhibitor]
CCn1cc(C(=O)NCCc2ccccc2)c(=O)c2cc(F)c(N3CCN(C)CC3)cc21	inconclusive: -50.3% [inhibitor]
CN(C)c1ccc(C2N([C@H](C#N)c3ccc(N(C)C)cc3)CCCN2[C@@H](C#N)c2ccc(N(C)C)cc2)cc1 (stereo partly drawn)	inactive: -11.3% [at 7.69 µM]
Nc1c(C(=O)NCC2CCCO2)c2nc3ccccc3nc2n1/N=C/c1ccncc1 (stereo not drawn)	inconclusive: -43.9% [inhibitor]
